Measurements: patent publication US20070269437A1, “Pro-Inflammatory and Anti-Inflammatory Antibodies Against the Heparin-Binding Protein (Hbp)” (Leukotech A/S, priority 2003, published 2007)
Values joined by “and” are separate entries in the source; they are usually repeats but may differ in a detail not shown here. Equal values may be shown once.

B1: HBP: heparin-binding protein isolated from azurophile granules of human PMNs (protein, UniProt P20160 27-248, looked up)
Azurocidin: IVGGRKARPRQFPFLASIQNQGRHFCGGALIHARFVMTAASCFQSQNPGVSTVVLGAYDLRRRERQSRQTFSISSMSENGYDPQQNLNDLMLLQLDREANLTSSVTILPLPLQNATVEAGTRCQVAGWGSQRSGGRLSRFPRFVNVTVTPEDQCRPNNVCTGVLTRRGGICNGDGGTPLVCEGLAHGVASFSLGPCGRGPDFFTRVALFRDWIDGVLNNPGP

Tested on: production of IL-6 in whole human blood
Test: Whole blood screening assay (IL-6 secretion)

Molecule | effect on IL-6 secretion (in words) (added alone) | effect on IL-6 secretion (in words) (added together with PGN) | IL-6 (hHBP 20-44 peptide 90 μg/ml alone) | IL-6 (hHBP 20-44 peptide 180 μg/ml alone) | IL-6 (hHBP 20-44 peptide 360 μg/ml alone) | amplification of the cytokine secretion induced by bacterial products (160 μM HBP per ml WB)
hHBP 20-44 peptide: fragment of human HBP consisting amino acids 20-44 according to SEQ ID NO: 1 (NQGRHFCGGALIHARFVMTAASCFQ; listed as Homo sapiens) | enhanced the IL-6 secretion | enhanced the IL-6 secretion | 60.7 pg/mL and 51.9 pg/mL | 122.7 pg/mL and 142.7 pg/mL | 510.5 pg/mL and 366.6 pg/mL | –
B1 | – | – | – | – | – | at least three-fold amplification
